Reference: PubChem BioAssay AID1159614 (National Center for Advancing Translational Sciences (NCATS), 2016)
In all, about 45,000 compounds went through this assay and about 65 (0.1%) were called active. The call rests on the fitted dose curve; in most records, active means well fitted activation curve with a large enough effect; inconclusive means small, poorly fitted or top-dose-only effect; inactive means no such curve, though single readings can be large or run the other way. The list shows a part of the results.

Target: Galactocerebrosidase (Homo sapiens) (UniProt P54803)
Chain of UniProt P54803 (P54803 whole entry, looked up): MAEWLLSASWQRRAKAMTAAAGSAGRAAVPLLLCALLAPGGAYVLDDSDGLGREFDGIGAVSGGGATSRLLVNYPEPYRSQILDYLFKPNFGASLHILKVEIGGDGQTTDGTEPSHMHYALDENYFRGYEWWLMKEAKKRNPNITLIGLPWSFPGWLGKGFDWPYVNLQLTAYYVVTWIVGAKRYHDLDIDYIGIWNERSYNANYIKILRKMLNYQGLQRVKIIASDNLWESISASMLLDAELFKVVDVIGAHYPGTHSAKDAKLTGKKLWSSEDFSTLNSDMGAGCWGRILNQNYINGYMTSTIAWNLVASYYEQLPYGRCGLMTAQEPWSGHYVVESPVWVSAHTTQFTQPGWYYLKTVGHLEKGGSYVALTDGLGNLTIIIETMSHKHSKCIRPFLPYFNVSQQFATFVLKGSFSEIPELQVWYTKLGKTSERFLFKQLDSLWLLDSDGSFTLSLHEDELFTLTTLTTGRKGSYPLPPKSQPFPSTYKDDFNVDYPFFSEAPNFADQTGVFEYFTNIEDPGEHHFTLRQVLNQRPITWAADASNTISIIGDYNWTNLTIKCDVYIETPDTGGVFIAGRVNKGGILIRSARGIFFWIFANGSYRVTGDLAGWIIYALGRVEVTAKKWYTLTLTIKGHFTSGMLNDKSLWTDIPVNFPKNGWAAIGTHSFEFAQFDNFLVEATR
Assay: A Novel Cell-Based Assay to Identify Small Molecules for B -Galactocerebrosidase; further: 0% is about no effect; nearly all actives have a fitted effect of over 65% in size
Conditions: 145M-Twi-hGALC-G270D cells (Twitcher mouse brain line with human GALC G270D), HMU-beta-Gal fluorescence, 48 h; series mostly up to 57.5 µM; activation: at the top concentration
Method in brief: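 Fluorescence readout: HMU-β-gal cleavage by mutant GALC (0.1 mM final, citrate/phosphate pH 5.2 with 1 mg/mL taurocholate), stopped with carbonate/bicarbonate plus Triton X-100. Cells: murine Twitcher 145M-Twi expressing human G270D GALC; qHTS for activators.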

activation, inactive:
CC(N)CCCC(C)(C)O (configuration not stated) -18.2%, CCOc1ccc2c(c1)c(=O)c(C(=O)c1ccc3c(c1)OCO3)cn2Cc1ccc(F)cc1 3.13%, Cc1nn(-c2nc(-c3ccccc3)cc(C(F)(F)F)n2)c(C)c1Cl -12.7%, CCc1nn(C(CC)C(=O)NCc2ccc(OC)c(OC)c2)c(=O)c2cc3oc(C)cc3n12 (configuration not stated) -11.1%, COc1ccccc1N1CCN(c2ncnc3c2c(-c2ccccc2)cn3-c2cccc(Cl)c2)CC1 -12.4%, Cc1ccc(OCCSc2nc(-c3ccccc3C)nc3cc(=O)[nH]n23)cc1Cl -13.5%, COc1ccc(C(=O)Nc2ccccc2-c2nc3ccccc3s2)cc1OC -6.03%, Cc1ccc(C)c(NC(=O)CSc2nccn2-c2cccc(C)c2C)c1 -4.93%, CCc1ccc(C2C(C(=O)Nc3ccccc3OC)=C(C)Nc3c(C(=O)Nc4ccc(C)cc4)cnn32)cc1 (configuration not stated) -12.9%, COc1cccc(CNC(=O)c2cnc3c(-c4ccc(F)cc4)c(C)nn3c2C)c1 -1.05%, CC(=O)Nc1ccc(NC(=O)c2nc(S(=O)(=O)Cc3ccc(F)cc3)ncc2Cl)cc1 -15.8%, CCN(C(=O)c1cn(-c2cccc(OC)c2)c(=O)c2ccccc12)c1ccccc1C -2.99%, COCCc1ccccn1 1.3%, CCN(CC)CCNC(=O)C1CCN(C(=O)c2cnn(-c3ccccc3)c2-n2cccc2)CC1 -11.3%, Cc1ccc(-n2c(SCc3ccccc3F)nc3[nH]ncc3c2=O)cc1Cl -16.3%, CCc1cccc(NC(=O)Cn2c(C(=O)OC)cc3sc(Cl)cc32)c1 -14.3%, CCCCOc1ccc(C2c3c(oc4ccc(C)cc4c3=O)C(=O)N2CCCN(C)C)cc1OCC (configuration not stated) 9.21%, CC(=O)NCCNC(=O)CCCn1c(=O)[nH]c2ccsc2c1=O -1.62%, Cc1ccc(NC(=O)CSc2nc(=O)cc(N)n2-c2ccccc2)cc1 -9.46%, CCOC(=O)N1CCc2c(sc3c2C(=O)NC(c2ccc(N(C)C)cc2)N3)C1 (configuration not stated) -14.9%, Cc1ccc2nc(NC(=O)CSc3[nH]c(=O)ncc3C)sc2c1 -21.7%, CCOC(=O)c1c(NC(=O)Cc2coc3cc(C)cc(C)c23)sc2c1CCC2 -16%, COCCN(CCOC)S(=O)(=O)c1ccc(C(=O)Nc2sc3c(c2C(=O)OC)CCN(C)C3)cc1 -22.9%, CC(=O)c1ccc(NC(=O)c2cc(C)nn2-c2ccccc2)cc1 -9.74%, CCN(CC)S(=O)(=O)c1cccc(C(=O)Nc2ccccc2C(=O)Nc2ccc(Cl)cc2)c1 -10.1%, Cc1ccc(C)c(NS(=O)(=O)c2cc3c(cc2C)n(C)c(=O)c(=O)n3C)c1 3.23%, Cc1ccc(-n2c(/C=C/c3c(C)n(C)c4ccccc34)nc3ccccc3c2=O)cc1 -12.1%, O=c1[nH]c(SCc2c(F)cccc2Cl)nc2c1CCC2 -4.46%, Cc1cccc(-n2c(C)cc(C(=O)C(=O)Nc3ccccc3F)c2C)c1C -4.72%, CCCN1CCN(CCCNC(=O)c2cc3c(=O)n(CC)c4ccccc4c3s2)CC1 5.15%, CCCCN(CCCNC(=O)c1cc(Nc2cccc(SC)c2)nc2ccccc12)Cc1ccccc1 -7.85%, CCOc1cccc(C(=O)Nc2ccc(-c3nc4ncccc4o3)cc2C)c1 -9.39%, Cc1ccc(NC(=O)c2cc(S(=O)(=O)N3CCC4(CC3)OCCO4)ccc2F)cc1Cl -11.9%, COC(=O)c1c(NC(C)=O)c2c3c(sc2n1Cc1cc(C)ccc1C)CCCC3 9.41%, CCOC(=O)c1ccccc1NC(=O)c1sc2nc3n(c(=O)c2c1C)CCCCC3 -6.73%, CN(C)S(=O)(=O)N(CC(=O)NCCSCc1c(F)cccc1Cl)c1ccccc1 -18.4%, COc1cccc(NC(=O)c2cccc3c(=O)c4c([nH]c23)CCCC4)c1 -16.3%, CCCOc1ccc(C2c3c(-c4ccccc4O)n[nH]c3C(=O)N2CCc2ccccc2)cc1OCC (configuration not stated) -17.4%, Cc1cccc(C(=O)Nc2nnc(S(=O)(=O)N(C)Cc3ccccc3)s2)c1 -15.8%, Cc1ccc(S(=O)(=O)CC(=O)Nc2nc3c(C)cc(C)cc3s2)cc1 -15.1%, COc1ccc(C(=O)c2oc3ccccc3c2NC(=O)c2cc(=O)c3ccc(C)cc3o2)cc1Cl 3.7%, COc1ccc(-c2noc(CNC(=O)c3ccccc3Br)n2)cc1 -14.9%, CCOc1ccc(-c2cccc(NS(=O)(=O)c3ccc(F)cc3F)c2)nn1 -7.56%, Cc1ccc(S(=O)(=O)NCC(c2ccco2)N2CCOCC2)cc1 (configuration not stated) -13.2%, COc1ccc(-c2nc3c(c(SCC(=O)N4CCCCC4)n2)Cc2cc(C)ccc2O3)cc1 -9.45%, O=S(=O)(c1cccc(Cl)c1)c1nnn2c1nc(NCc1ccc3c(c1)OCO3)c1sccc12 -6.44%, CCOc1ccc2ncc3c(-c4ccc(C)cc4)nn(-c4cccc(F)c4)c3c2c1 -8.12%, CCOc1ccc(OCC)c(NC(=O)c2cc(S(=O)(=O)N3CCc4ccccc43)cn2C)c1 -5.43%, CCc1nnc(NC(=O)c2cc(=O)c3cc(C)ccc3o2)s1 -21.5%, COc1ccccc1CNC(=O)C(=O)NCC(c1cccs1)S(=O)(=O)c1ccccc1 (configuration not stated) 11.8%, CC(=O)c1ccc(N2CCN(S(=O)(=O)c3cc4[nH]c(=O)c(=O)[nH]c4cc3C)CC2)cc1 -8.36%, O=C(O)c1ccccc1S -18.2%, Cc1ccc(C)c(N2CCN(C(=O)Cn3cnc4onc(-c5ccc(F)cc5)c4c3=O)CC2)c1 -26%, CCOC(=O)CSc1nc(-c2ccc(OCC)cc2)cc(C(F)(F)F)c1C#N -1.95%, CC(=O)Nc1ccc(/C=C/c2noc(-c3ccccc3O)n2)cc1 18.5%, Cc1ccc2oc(=O)c3cc(C(=O)NCCCOC(C)C)sc3c2c1 13.8%, O=C(Nc1sc2c(c1C(=O)NCc1ccco1)CCCC2)c1cc(=O)c2cc(Cl)ccc2o1 -15.7%, CCOc1cc(C(=O)Nc2cc3c(cc2N2CCCC2)n(C)c(=O)c(=O)n3C)cc(OCC)c1OCC -10.3%, Cc1cc(C)c2nc(C)cc(Nc3cccc(C(=O)O)c3)c2c1 -1.93%, Cc1nnc(N2CCN(C(=O)NCCC(C)C)CC2)c2nn(-c3ccc(Cl)cc3)c(C)c12 -15.7%, Cc1cccc(C(=O)Nc2cc3c(cc2C)n(C)c(=O)n3C)c1 -13.4%, CCC(=O)N1CCc2cc(Br)cc(S(=O)(=O)NCCc3cccc(C)c3)c21 -4.68%, CC(=O)N1CCc2cc(S(=O)(=O)NC(Cc3ccccc3)C(=O)NCc3ccccc3)ccc21 (configuration not stated) -12.4%, Cc1ccc(Cn2c(=O)n(Cc3ccccc3)c(=O)c3oc4ccccc4c32)cc1 -15.6%, CC(=O)Nc1ccc(NC(=O)c2ccc3c(c2)N(Cc2cccc(Cl)c2)C(=O)c2ccccc2S3=O)cc1 (configuration not stated) -10.7%, COCc1nc2ccccc2n1Cc1ccc(C(C)(C)C)cc1 19.9%, O=C(CCCCn1c(=O)c2ccccc2n(Cc2cccc(F)c2)c1=O)NCCc1ccccc1 -10.7%, COc1ccccc1NC(=O)Cn1c(C)cc(C)c(C#N)c1=O -5.89%, Cc1ccc(C)c(NC(=O)CN2C(=O)CCc3cc(S(=O)(=O)N4CCCCC4)ccc32)c1 -3.88%, NS(=O)(=O)c1cc2c(cc1Cl)CN(C1CCCCC1)C2=O -10.4%, Cc1ccc2c(c1)-c1nc(-c3ccc4c(c3)NC(=O)CO4)cc(-c3ccccc3)c1CO2 -9.32%, CC(=O)N1CCC(N(Cc2ccc(C)o2)C(=O)Nc2cccc(C(F)(F)F)c2)CC1 -10.5%, CC(=O)N1CCc2c(sc3c2c(=O)n(-c2ccccc2)c(=O)n3CC(=O)c2ccccc2)C1 -17.7%, COc1ccc(NC(=O)Nc2cc(-c3cn4cccnc4n3)ccc2C)cc1 -13.6%, O=C(NC1CCN(Cc2ccccc2)CC1)c1ccc(Cn2c(=O)c3ccccc3n(Cc3ccc(Cl)cc3)c2=O)cc1 -2.33%, Cc1ccc(-c2cnc(C3CC3)o2)cc1S(=O)(=O)Nc1cccc(C)c1C -13.9%, CC(C)(C)OC(=O)N1CCC(c2c(C(=O)N3CCN(c4ccccn4)CC3)cnn2-c2ccc(F)cc2F)CC1 -8.29%, COc1ccc2[nH]c3c(c2c1)CCN(C(=O)CCC1CCCC1)C3c1ccc(F)cc1 (configuration not stated) -29.6%, Cc1cccc(Cn2c(-c3ccccc3)nc3ccccc32)c1 -12.5%, O=C(CSc1nccn1-c1ccc(F)cc1)Nc1nc2ccccc2s1 -13.9%, O=C(CC1N=C2c3ccccc3N=C(SCc3ccc(F)cc3)N2C1=O)NCCc1ccccc1 (configuration not stated) 0.41%, COc1ccc(NC(=O)c2oc3ccccc3c2NC(=O)c2cc(=O)c3cc(Cl)ccc3o2)cc1 5.37%, COc1ccc(Cl)cc1NCc1nnc2n1CCCCC2 -22.1%, COc1ccc(CC(C)NS(=O)(=O)c2ccc3c(c2)CCN3S(C)(=O)=O)cc1OC (configuration not stated) -3.92%, COC(=O)c1c(NC(=O)c2ccc(OC)cc2OC)sc2c1CCCCC2 -13.2%, Cc1ccc(NC(=O)C2CCCN(c3ncnc4c3nc3n4CCCCC3)C2)c(Br)c1 (configuration not stated) -23.3%, CCn1c(=O)c2cc(C(=O)NCc3cc(OC)ccc3OC)sc2c2ccccc21 1.14%, CCN1CCN(c2csc3ccc(Br)cc3c2=O)CC1 -15.3%, COc1ccc(NC(=O)C2CCCN(S(=O)(=O)c3c(C)[nH]c(=O)[nH]c3=O)C2)cc1OC (configuration not stated) 11.3%, CC(C)(C)c1ccc(C(=O)NCC(=O)OCc2cc(=O)n3nc(C4CC4)sc3n2)cc1 -5.24%, Cc1cc(C)cc(-n2c(SCC(=O)Nc3ccccc3)nc3c(oc4ccccc43)c2=O)c1 -10.4%, CCOc1ccc2nc(NC(=O)c3nc(SCc4ccccc4F)ncc3Cl)sc2c1 -12.2%, CCCCn1c(=O)n(CC2CCC(C(=O)NCCCOC)CC2)c(=O)c2sccc21 (configuration not stated) -17.5%, COc1cc(OC)cc(-c2nc3nc(C)c(CCC(=O)Nc4cc(C)cc(C)c4)c(C)n3n2)c1 5.42%, CC(=O)c1ccc(NC(=O)CSC2=Nc3ccccc3N=C(c3ccc(F)cc3)C2)cc1 3.13%, CC(C)Cn1cc(NC(=O)N2CCN(c3ccc(F)cc3)CC2)c2ccccc2c1=O -21.2%, O=C(NCc1ccc(Cl)cc1)C1CCN(S(=O)(=O)c2cccc3nonc23)CC1 -11.7%
